In PMC6919601, “Identification of Plasmodium dipeptidyl aminopeptidase allosteric inhibitors by high throughput screening” (PLoS ONE, 2019):
The campaign covered roughly 110,000 compounds. About 230 (0.21%) showed an effect of 50% or more. This is one part of the list.

target: DPAP1 (Plasmodium falciparum, UniProt Q8IIJ9); experiment: primary screen, percent inhibition; read by cleavage of a fluorogenic dipeptide substrate; higher = more effect of the substance; set-up: species or system P. falciparum D10 trophozoite lysates; single well
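Also: 30 min substrate incubation versus DMSO and 10 µM JCP410 controls.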

DPAP1, sequence (Q8IIJ9 whole entry, looked up): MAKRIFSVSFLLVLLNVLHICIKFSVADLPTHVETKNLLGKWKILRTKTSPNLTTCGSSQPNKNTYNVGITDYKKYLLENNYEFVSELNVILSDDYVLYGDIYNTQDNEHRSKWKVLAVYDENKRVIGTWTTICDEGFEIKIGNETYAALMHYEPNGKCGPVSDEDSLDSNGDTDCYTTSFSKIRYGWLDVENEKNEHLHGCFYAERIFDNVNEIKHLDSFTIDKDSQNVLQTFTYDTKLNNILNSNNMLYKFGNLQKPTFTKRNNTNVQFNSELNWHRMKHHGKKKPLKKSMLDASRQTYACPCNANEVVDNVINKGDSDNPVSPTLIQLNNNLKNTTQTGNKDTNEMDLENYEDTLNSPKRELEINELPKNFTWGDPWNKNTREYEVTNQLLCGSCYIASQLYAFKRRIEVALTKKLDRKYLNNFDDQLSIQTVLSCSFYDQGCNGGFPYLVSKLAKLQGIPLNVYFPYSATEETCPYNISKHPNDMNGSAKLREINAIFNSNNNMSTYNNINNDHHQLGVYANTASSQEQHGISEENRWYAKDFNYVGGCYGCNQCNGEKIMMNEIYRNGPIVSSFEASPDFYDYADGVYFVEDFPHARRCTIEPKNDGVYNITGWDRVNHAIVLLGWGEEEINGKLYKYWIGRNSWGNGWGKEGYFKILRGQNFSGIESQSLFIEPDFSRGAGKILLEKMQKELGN

Row | SMILES | % Inhibition @ 10 uM
1 | COc1ccc(S(=O)(=O)N(CC(=O)Nc2ccc(C)c(Cl)c2)c2ccc(F)cc2)cc1OC | -3.77%
2 | CCN(C1CCCCC1)S(=O)(=O)c1ccc(F)cc1 | 3.47%
3 | O=S(=O)(Nc1ccc(S(=O)(=O)Nc2nccs2)cc1)c1ccc(F)cc1 | 3.91%
4 | O=C(NCCC1=CCCCC1)c1ccc2snnc2c1 | 4.8%
5 | O=C(NCCCN1CCC(Cc2ccccc2)CC1)C1CC(=O)N(C2CCCC2)C1 (stereo not drawn) | 3.79%
6 | CC(=O)c1c(C)[nH]c(C(=O)N2CC(C)CC(C)C2)c1C (stereo not drawn) | 4.51%
7 | N#CC1=C(N)Oc2ccc3ccccc3c2C1c1ccc(F)cc1 (stereo not drawn) | 0.983%
8 | Cc1cc(Br)ccc1OCC(=O)Nc1ccc(S(=O)(=O)N2CCC(C)CC2)cc1 | -5.95%
9 | CC1CCN(c2ncnc3c2sc2nc(N4CCOCC4)c4c(c23)CC(C)(C)OC4)CC1 | -3.92%
10 | COc1ccc(C(C)=O)cc1N1C(=O)C2C(C1=O)C1C=CC2C12CC2 (stereo not drawn) | 0.475%
11 | C=CCO/C(O)=C1\C(C)=Nc2nnnn2C1c1ccc(OC)cc1OC (stereo not drawn) | -5.19%
12 | Brc1cccc(CN2CCc3c([nH]c4ccccc34)C2)c1 | -0.828%
13 | N#CCNC(=O)[C@H](CSCc1ccccc1)NC(=O)c1cccc(Oc2ccccc2)c1 | -3.49%
14 | CC1=C(c2ccc(C)c(C)c2)S(=O)(=O)N(Cc2ccc(C(=O)NCc3ccc(F)cc3)cc2)C1=O | 6.31%
15 | CN(C)S(=O)(=O)c1ccc(-c2cs/c(=N\c3ccccc3)n2C(C)(C)C)cc1 | -2.19%
16 | COCCNC(=O)c1ccc2c(c1)sc1nc(-c3ccc(F)cc3)cn12 | 5.37%
17 | Cc1cccc(NC(=O)CC23CC4CC(CC(C4)C2)C3)n1 | 1.32%
18 | COC(=O)C1=C(C)N=c2s/c(=C/c3ccc(Cl)cc3Cl)c(=O)n2C1c1ccccc1 (stereo not drawn) | -2.35%
19 | COc1cccc(C2NC(=O)NC(C)=C2C(=O)OCC(F)(F)F)c1 (stereo not drawn) | 10.4%
20 | CC(C)OCCCNC(=O)c1cc(S(=O)(=O)N2CCCCC2)c[nH]1 | -1.97%
21 | COc1ccc(C=O)cc1Cn1c(=O)n(Cc2ccccc2)c(=O)c2c3c(sc21)CCC3 | -0.668%
22 | O=C(NC1CCCc2ccccc21)C1c2ccccc2Oc2ccccc21 (stereo not drawn) | -13%
23 | CCOC(=O)C1=CN(Cc2ccc(F)cc2)C=C(C(=O)OCC)C1c1cc(OC)c(O)c(OC)c1 | -6.93%
24 | COc1ccc(CNC(=O)c2cc(-c3ccc(O)cc3)on2)cc1 | 0.0654%

Row | SMILES | % Inhibition @ 10 uM
25 | Cc1cccc(C)c1NC(=O)c1ccccc1C(=O)O | 6.97%
26 | O=C(COc1ccc(Cl)cc1)Nc1nnc(S(=O)(=O)NCc2ccccc2)s1 | -3.51%
27 | CSc1ccc(CN2CCCCC2CO)cc1 (stereo not drawn) | 0.215%
28 | Cc1cc2c(cc3c(SCc4ccc(F)cc4Cl)nncn32)o1 | -1.97%
29 | CN(CC1COc2ccccc2O1)S(=O)(=O)c1ccc(-c2ccc(O)nn2)s1 (stereo not drawn) | 1.95%
30 | CCc1ccc(-c2cn3c(n2)sc2cc(C(=O)N4CCN(C(=O)c5ccco5)CC4)ccc23)cc1 | 28.4%
31 | Cc1nn(CC(=O)NCc2ccccc2Cl)c(=O)c2cc3cc(F)ccc3n12 | 3.29%
32 | O=C(NCCC1=CCCCC1)C1CCCN(c2cnccn2)C1 (stereo not drawn) | 0.635%
33 | O=C(NCCN1CCOCC1)c1cccc(F)c1 | -6.06%
34 | OCC1CCCN(C2CCC(c3ccccc3)CC2)C1 (stereo not drawn) | 3.48%
35 | COc1ccccc1NC(=O)C1=C(C)N=C2CCCC(O)=C2C1c1ccc(Cl)cc1Cl (stereo not drawn) | 0.658%
36 | Cc1ccc(O)c(NC(=O)c2nn3c(C(F)(F)F)cc(-c4cccs4)nc3c2Cl)c1 | 4.52%
37 | CCn1c2ccccc2c2cc(CN3CCC(Cc4ccccc4)CC3)ccc21 | 3.16%
38 | CCc1ccc(NC(=O)CN2C(=O)S/C(=C/c3ccc4c(c3)n(C)c(=O)n4C)C2=O)cc1 | -7%
39 | Cc1nc2ccc(S(=O)(=O)NC(CC(C)C)C(=O)NC3CCC(C)CC3)cc2s1 (stereo not drawn) | -1.3%
40 | COc1ccc(NCc2cccc(F)c2)cc1 | 2.91%
41 | CC(C)OCCCNc1nc2c(S(=O)(=O)c3ccc(Cl)cc3)nnn2c2ccsc12 | 5.85%
42 | C=C(C)C1CCC(C)OC1CN1CCCCC1 (stereo not drawn) | 4.88%
43 | O=C(NC1CCCC1)c1cc2n(n1)C(C(F)(F)F)CC(c1ccc(F)cc1)N2 (stereo not drawn) | 1.15%
44 | CCOC(=O)N1CCN(C(=O)c2nc3ccccc3s2)CC1 | 2.48%
45 | COc1ccc(N(CC(=O)N2CCN(c3ccccc3)CC2)S(C)(=O)=O)cc1Cl | -10.2%
46 | COc1ccc(C(=O)O)cc1S(=O)(=O)NCc1ccccn1 | -3.5%
47 | O=C(O)c1ccc(NC(=O)c2ccc3c(c2)C(=O)N(Cc2ccco2)C3=O)cc1 | 1.39%
48 | CCCOc1ccc(C(=O)Nc2ccc(Cl)cn2)cc1 | -10%

Row | SMILES | % Inhibition @ 10 uM
49 | CC1=CC(C)C2(COC(=O)CN3CCCCC3)COC(c3ccccc3)C1C2C (stereo not drawn) | 6.21%
50 | Cc1cc(NS(=O)(=O)c2ccc(CN3C(=O)c4cccnc4C3=O)cc2)c2ccccc2n1 | -3.54%
51 | CC(/C=C1\SC(=O)N(CC(=O)Nc2ccccc2O)C1=O)=C\c1ccccc1 | 21.9%
52 | Cc1cc(C(=O)NC2CCC(C)CC2)n[nH]1 (stereo not drawn) | 0.181%
53 | Cc1cc(-c2ccc(Cl)cc2)nc2cc(C(=O)O)nn12 | 0.316%
54 | Cc1oc(-c2cccs2)nc1CSc1nc2ncccc2o1 | -3.15%
55 | CC(Oc1ccc(Cl)cc1Cl)C(=O)Nc1ccc(S(=O)(=O)N2CCOCC2)cc1 (stereo not drawn) | -0.511%
56 | CC(=O)Nc1ccc(NC(=O)Cc2ccc(F)cc2)cc1 | -0.318%
57 | CC1CCN(S(=O)(=O)c2cccc(C(=O)NCc3ccco3)c2)CC1 | -10.4%
58 | CCOC(=O)c1[nH]c2ccccc2c1NC(=O)c1cccc2ccccc12 | 3.49%
59 | c1ccc2c(c1)NC(CN1CCOCC1)CO2 (stereo not drawn) | 2.99%
60 | CCC/N=C/c1c(C)nn(-c2ccc(C)c(C)c2)c1O | 0.0719%
61 | COc1ccc(C(=O)Nc2ccc(S(=O)(=O)N(C)Cc3ccccc3)cc2)cc1 | -2.66%
62 | CC(NC(=O)C1CCCN1S(=O)(=O)c1ccccc1)c1ccccc1 (stereo not drawn) | -3.04%
63 | COc1cccc(-c2nc(CS(=O)(=O)CC(=O)NCc3ccc4c(c3)OCO4)c(C)o2)c1 | -1.89%
64 | COc1cccc(C2C(C(=O)Nc3ccccc3)=C(C)N=c3s/c(=C\c4ccncc4)c(=O)n32)c1 (stereo not drawn) | -4.59%
65 | CCCCN(C)CCCNC(=O)C1CCCN(S(=O)(=O)N2CCOCC2)C1 (stereo not drawn) | -5.93%
66 | O=C(C1CCN(S(=O)(=O)c2ccc(Cl)cc2)CC1)N1CCOCC1 | -1.22%
67 | COC(=O)c1c(C)nn(-c2ccccc2)c1NC(=O)C(C)Oc1ccc(Cl)cc1 (stereo not drawn) | -3.41%
68 | COc1ccccc1C(=O)N1CCN(S(C)(=O)=O)CC1 | -1.6%
69 | Cc1onc(-c2ccccc2Cl)c1C(=O)n1nnc2ccccc21 | 0.518%
70 | CCC(Sc1nc(C)cc(C)n1)C(=O)NC(C)c1ccccc1 (stereo not drawn) | -5.51%
71 | COc1ccc(OC)c(C2c3[nH]c4ccccc4c3CCN2C(C)=O)c1 (stereo not drawn) | -0.446%
72 | COc1ccc(C2(C(=O)N3CCCCC3)CCOCC2)cc1 | -7.33%

Row | SMILES | % Inhibition @ 10 uM
73 | CSc1ccc(CN2CCN(Cc3ccccc3C)CC2)cc1 | 3.05%
74 | CC(CCc1ccccc1)NC(=O)COCc1cc(-c2ccc(F)cc2)on1 (stereo not drawn) | -6.73%
75 | Cc1cccc2c(O)c(NC(=O)N3CC(C)CC(C)C3)cnc12 (stereo not drawn) | -2.84%
76 | COc1ccc(CCNC(=O)Cc2c(C)c3c(OC)cc(OC)cc3oc2=O)cc1 | -4.39%
77 | N#CCNC(=O)C(Cc1ccccc1C(F)(F)F)NC(=O)OCc1ccccc1 (stereo not drawn) | -5.2%
78 | C=CCn1c(=N)c(C(=O)NCC2CCCO2)cc2c(=O)n3ccccc3nc21 (stereo not drawn) | -1.47%
79 | CC1=C(C(=O)N2CCN(Cc3ccc4c(c3)OCO4)CC2)C2(CCC(C)CC2)OC1=O (stereo not drawn) | 3.19%
80 | CCc1cc2c(N3CCCCCC3)ncnc2s1 | -4.05%
81 | CC1(C)OC(=O)C2(C(=O)O1)C1C3C4CC5C6C4C1C6C2C53 (stereo not drawn) | 2.5%
82 | O=C1CN=C(c2ccccc2)c2cc(Br)ccc2N1 | -11.2%
83 | COCCCNC(=O)NC1CCCN(S(=O)(=O)c2ccc(C)cc2)C1 (stereo not drawn) | 0.635%
84 | CCOC(=O)c1c(CSc2ccsc2)n(C)c2cc(Br)c(O)c(CN(C)C)c12 | -1.47%
85 | CC1=C(C(=O)Nc2ccccc2C)C(c2ccccc2C)C2=C(O)CCCC2=N1 (stereo not drawn) | 2.38%
86 | O=C(CN1CC(=O)N2CCCC2C1=O)NCc1cccs1 (stereo not drawn) | -5.05%
87 | CCCCCOc1ccc(CN2CCOCC2)cc1Cl | -4.23%
88 | CN(CCc1ccccc1)Cc1cccc(O)c1 | 3.35%
89 | CNS(=O)(=O)c1cn(CC(=O)Nc2cccnc2)cc1S(=O)(=O)NC | -7.87%
90 | CCOc1ccccc1N(CC(=O)NCc1ccncc1)S(C)(=O)=O | 1.02%
91 | Cc1noc(/C=C/c2cccs2)c1S(=O)(=O)N1CCCC(C(=O)N2CCC(C)CC2)C1 (stereo not drawn) | -1.66%
92 | CCOc1ccc(-c2nnc(SCC(=O)N3CCC(C)CC3)o2)cc1 | 5.56%
93 | CC(C)C[C@H](NC(=O)c1ccc(-c2ccc3[nH]ccc3c2)cc1)C(=O)NCC#N | -3.04%
94 | CCOC(=O)c1cc2c(=O)n3ccccc3nc2n(CCOC)/c1=N\C(=O)C(C)(C)C | -2.04%
95 | Cc1cc(C(=O)Nc2ccc(Cl)c(Cl)c2)ccc1[N+](=O)[O-] | -0.268%
96 | CC(=O)Nc1ccc(S(=O)(=O)Nc2nc3ccccc3nc2Nc2ccc(S(N)(=O)=O)cc2)cc1 | -9.29%
